Measured values: ChEMBL document CHEMBL4888484, “Replenishing the malaria drug discovery pipeline: Screening and hit evaluation of the MMV Hit Generation Library 1 (HGL1) against asexual blood stage Plasmodium falciparum ,using a nano luciferase reporter read-out” (2022)
Among all 150,000 compounds or so, about 540 (0.36%) showed an effect of 50% or more. The list shows a part of the results.

The compounds below were run on Plasmodium falciparum (assay: Primary screen in NF54 nanoGlo assay, in single point, at 2uM, 72h; a lower Z score goes with more inhibition). Settings: timepoint 72 hour.
Assay type: functional, Erythrocyte

Structure (SMILES)	% Inhibition	Z score
CC(=O)N1N=C2C(=Cc3ccc(Cl)cc3)CC(C)CC2C1c1ccc(Cl)cc1 (stereo unspecified)	-8%	1.49
C#CCCC1(CCC(=O)N2Cc3ccccc3OC[C@@H]2C)N=N1	-13%	1.65
COC(=O)C[C@@H](c1cn[nH]c1-c1ccccc1)c1c(O)n[nH]c1C	4%	-0.53
O=C(CCn1cnc2c(-c3ccccc3)noc2c1=O)NC1CC1	-3%	0.46
CCC(CC)C(=O)N1CC(=O)N2CC[C@@H](CC(=O)N3CCN(C)CC3)[C@@H](/C=C\COc3ccccc3C1)C2	11%	-1.3
CN(C)C(=O)c1cccc(N2CC[C@](C)(O)[C@@H](O)C2)n1	-11%	2
O=C(COc1ccc(Cl)c(Cl)c1)N1CC[C@@]2(CCCNC2=O)C1	12%	-1.62
CC(C)Nc1ncc(CN2CC[C@H](c3ccnc(-c4ccc5c(c4)OCO5)c3)C2)cn1	-4%	0.54
CC(C)c1nc(N2CCCC2=O)sc1C(=O)Nc1ccccc1	-10%	0.95
COC(C(=O)Nc1nccc2cc(Br)ccc12)C1CCOC1 (stereo unspecified)	3%	-0.35
CCCN(Cc1cc(NC(=O)NC(C)(C)C)ccc1N(C)C)C(=O)C(C)C	-1%	0.09
Cc1ncc(CN2CCC(NC(=O)c3cc[nH]n3)C(C)C2)s1 (stereo unspecified)	0%	-0.04
COc1ccc(CCNC(=O)C2=C(C)NC(=O)N[C@H]2c2cccnc2)cc1	-12%	2.42
COc1ccc(N2CCN(C(=O)[C@H]3CCC[C@H]3NC(=O)c3cnc(C)cn3)CC2)cc1	-15%	2.37
O=C(NCc1cccs1)N1CCC[C@H]1c1ccncc1	-2%	0.32
NC(=O)c1ccc2nc(CN3CC[C@@](O)(c4ccccc4)[C@H]4CCCC[C@H]43)cc(O)c2c1	1%	-0.09
CCOC(C)(C)C(=O)NC[C@H]1CCN(C2CCCCC2)C1	-7%	1.11
CC(C)c1cc(=O)[nH]c(-n2nc(C3CC3)cc2NC(=O)c2ccc(F)cc2)n1	90%	-16.95
Cc1ccnc([C@@H](Nc2ncnc(C)c2C)C2CC2)c1	-1%	0.15
Cc1ccc(C)c(-c2cncc(C(=O)NC3CCCCC3)c2)c1	-12%	1.38
COc1cc(C(F)(F)F)ncc1NC(=O)NC1CCN(CC2CC2)CC1	-1%	0.08
Cc1ccccc1[C@@H](NS(=O)(=O)Cc1ccon1)C(C)(C)C	-13%	1.27
N#C[C@@H]1C(=O)N=C(N2CCN(c3ccccc3)CC2)NC12CCN(Cc1ccccc1)CC2	-6%	0.92
Cc1nn(C)c(Cl)c1-c1c(-c2ccccc2)ncn1C[C@H]1CCCO1	9%	-1.29
C#CCNC(=O)CNC(=O)c1ccccc1NC(=O)C(C)(C)C	-6%	0.8
Cc1cc(=O)c(C(=O)NC[C@H](C)c2c(C)noc2C)c[nH]1	-4%	0.58
Cc1cc(C(=O)N2CCOC[C@@H]2CC(=O)c2ccco2)ns1	3%	-0.4

Structure (SMILES)	% Inhibition	Z score
CC(C)(C)C1CCCC1Nc1nc(=O)c2cn[nH]c2[nH]1 (stereo unspecified)	-3%	0.57
Cc1ccc2nonc2c1S(=O)(=O)NCc1cnn(C)c1	-10%	1.49
CC(=O)NC1(c2noc(-c3cc(F)cc4ccoc34)n2)CCCCC1	-9%	1.17
CCCc1nnc(N2C[C@@H](CN3C[C@@H](C)O[C@@H](C)C3)[C@@H](CO)C2)s1	-10%	1.93
Cc1cc(CN2CCCCC2C2CCCCC2O)nc(-c2ccc(Cl)cc2)n1 (stereo unspecified)	-12%	1.84
C[C@H]1CN(S(=O)(=O)c2ccccc2)CN1C(=O)N1CCOCC1	9%	-1.16
O=C(NCc1ccco1)c1ccncc1F	-7%	1.32
O=C(O)[C@H]1CCCN(C(=O)Nc2ccc(-n3ncc4ccccc43)cc2)C1	-5%	0.61
Cc1ccc(CCCC(=O)NC[C@H](O)CN2CCOCC2)cc1	-13%	1.3
COCC(=O)N1CC[C@H](c2nnc(-c3ccc(C)cc3)o2)C1	0%	0.02
CCN(Cc1ccccc1)c1ccc(NC(=O)c2ccc(C)cc2)cc1C(=O)O	-10%	0.96
CC(C)c1nccc(CN2CCC(C(=O)O)(n3ccc(C(C)(C)C)n3)CC2)n1	-4%	0.79
COc1ccc(N2CCN(C(=O)CN(C)c3ccccc3)CC2)cc1	-12%	1.52
CCn1ncc(C#N)c1NS(=O)(=O)c1cc(C)c(Cl)s1	2%	-0.4
N#Cc1cn[nH]c1NC(=O)C(=O)N1CCc2ccccc2C1	0%	0
O=C(COc1ccc(Cl)cc1Cl)N1C[C@H]2CCCN[C@H]2C1	0%	-0.03
NC(=O)[C@H]1CCCN1C(=O)c1ccc2nc(-c3ccc(F)cc3)cn2c1	-19%	3.7
O=C(Nc1nnc(COc2ccccc2)o1)C1CCCC1	9%	-1.19
COc1cccc(-c2ccnc3nc(Cc4cc(F)cc(F)c4)nn23)c1	6%	-0.73
Cc1ccc(OCc2ccccc2)c(NC(=O)c2ccn(C)c(=O)c2)c1	-12%	2.21
O=C(c1ccc(-n2cnnc2)nc1)N1C[C@H]2CC=CC[C@H]2C1	-9%	0.91
O=C(NCc1nnc2ccccn12)c1ccc(Oc2ccccc2)cc1	4%	-0.67
Cc1nc2c3c(F)cccc3nn2c(O)c1CCC(=O)NCCO	13%	-1.53
Cc1nc(C(=O)NC2COC2)sc1C	-4%	0.74
NC(=O)CCNC(=O)c1ccc2c(c1)n(CC1CC1)c(=O)n2C1CCCCC1	-8%	1.19
C[C@H](Nc1ccc2nc(C(F)F)sc2c1)c1nc(C2CC2)no1	-14%	2.22
